In PubChem BioAssay AID1963576 (National Center for Advancing Translational Sciences (NCATS), 2024):
Out of some 46,000 compounds screened, about 60 (0.1%) were called active. Roughly 3% stayed inconclusive and do not appear here. The call rests on the fitted dose curve; in most records, active means well fitted inhibition curve with a large enough effect; inconclusive means small, poorly fitted or top-dose-only effect; inactive means no such curve, though single readings can be large or run the other way. The list shows a part of the results.

Test: Primary qHTS assay for Inhibitors of ovarian cancer metastasis using an organotypic tumor microenvironment (TME) model. Further: nearly all actives have a fitted effect of over 65% in size.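 On activity change, negative = inhibition: plate controls were DMSO wells for no effect and tomatine positive control wells for full effect.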
Settings: SKOV3ip1-GFP adhesion/invasion on 3D omental model, fluorescence; series mostly up to 45.8 µM; activity change, negative = inhibition: at the top concentration
Summary of the method: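 Primary human omental fibroblast/mesothelial 3D culture pre-formed 48 h. SKOV3ip1-GFP cells added with compounds (0.36-46 umol/L), incubated 2 h RT/16 h 37 C, fixed; GFP cells quantified at 488/509 nm.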

Activity change, negative = inhibition, inactive:
COc1ccc(Br)cc1CNC(=O)CSc1n[nH]c(-c2ccccc2)n1 -1.17%
COc1ccc(NC(=O)CCS(=O)(=O)c2ccc3c(c2)n(C)c(=O)c(=O)n3C)cc1Cl 2.59%
CCn1c(CN2CCCCC2)nc2cc(NC(=O)COc3ccc(C(C)(C)C)cc3)ccc21 -3.85%
COc1ccc2c(c1)NC(c1ccc(Cl)cc1)=NC(c1cccs1)=N2 -4.46%
Cc1ccc(S(=O)(=O)NCCSc2nnnn2-c2ccccc2)cc1 70.7%
Cc1oc2ccc(O)c(CN3CCC(C)CC3)c2c1C(=O)Nc1ccccc1 -4.63%
Cc1ccc(C)c(Cn2c(=O)n(Cc3ccccc3)c(=O)c3sc4ccccc4c32)c1 95.7%
CC(C)(C)c1ccc(-c2nnc(-c3ccccc3NC(=O)c3cccc(C(F)(F)F)c3)o2)cc1 11.6%
Cc1ccc(CCNC(=O)c2ccc3c(c2)N(Cc2cc(C)ccc2C)C(=O)c2ccccc2S3=O)cc1 (stereo not given) -18%
Cc1cc(C)cc(NS(=O)(=O)c2ccc(-c3cc(C)no3)cc2)c1 -8.02%
CCN(CC)c1ccc(NC(=O)CN2C(=O)c3cccnc3Oc3ccccc32)c(C)c1 3.8%
Cc1ccc(/C=C/c2onc(C)c2S(=O)(=O)N2CCC(C(=O)NCc3ccco3)CC2)cc1 22.5%
CCOC(=O)c1cccc(NS(=O)(=O)c2cc(Br)cc3c2N(C(=O)C2CC2)CC3)c1 12.6%
COc1ccc2c(c1)NC(c1ccc(F)cc1)=NC(c1ccc(F)cc1)=N2 -2.61%
COc1ccc(CNC(=O)CCS(=O)(=O)c2cc(Br)cc3c2N(C(=O)C2CC2)CC3)cc1 17.4%
COc1ccc(NC(=O)C2CCN(C3=NS(=O)(=O)C(c4ccc(C)c(C)c4)=C3C)CC2)cc1OC -6.37%
COC(=O)c1ccc(OCC2c3cc(OC)c(OC)cc3CCN2C(=O)c2cccc(C)c2)cc1 (stereo not given) -2.87%
O=C(Cn1nc(Cc2cccnc2)c2ccccc2c1=O)N1CCN(c2ccc(F)cc2)CC1 -6.34%
CCCSCCCNC(=O)C1CCCN(C(=O)c2cnn(-c3ccccc3)c2-n2cccc2)C1 (stereo not given) 9.02%
COc1ccc(Nc2ncnc3onc(C)c23)cc1Cl 8.24%
COc1ccc(OC)c(CNC(=O)CCS(=O)(=O)c2ccc3c(c2)oc(=O)n3C)c1 -0.347%
Cc1ccc(C)c(N2CCN(CCCNc3ncnc4onc(-c5ccc(Cl)cc5)c34)CC2)c1 -4.78%
CCN(C(=O)C(NS(=O)(=O)c1cccc2nsnc12)c1ccccc1)c1ccccc1 (stereo not given) -1.98%
CC1CCN(S(=O)(=O)c2cccc(C(=O)NC3CCS(=O)(=O)C3)c2)CC1 (stereo not given) 0.416%
Cc1ccc(C(=O)N2c3nc(-c4ccco4)nn3C3(CCCCC3)[C@@H]3CCCC[C@@H]32)cc1 5.83%
Cc1cc(Nc2ccc(C)c(Cl)c2)n2nc(-c3ccccc3)nc2n1 9.84%
Cc1cc(C)c(NC(=O)CN2C(=O)c3cccnc3Oc3ccc(Cl)cc32)c(C)c1 3.8%
COc1ccc(OC)c(CNC(=O)c2cc(=O)[nH]c3ccc(S(=O)(=O)N4CCCCC4C)cc23)c1 (stereo not given) -3.51%
Cc1ccc2cccc(NC(=O)c3ccc(-c4ccc(Cl)cc4Cl)o3)c2n1 5.31%
Cn1c(=O)c2c(-c3ccccc3)n3c(c2n(C)c1=O)C(c1cc(Cl)ccc1O)Nc1ccccc1-3 (stereo not given) -8.97%
COc1ccc(-c2nc3cc(NC(=O)COc4ccc(F)cc4)ccc3o2)cc1 -5.1%
O=C(NCCC1=CCCCC1)c1ccc2c(c1)ncn2-c1cccc(Cl)c1 4.94%
COc1ccc(S(=O)(=O)NCCc2sc(-c3ccccc3)nc2C)cc1OC 1.16%
CCOC(=O)N1CCC(NC(=O)c2cnn(-c3ccccc3)c2C2CCN(C(=O)OC(C)(C)C)CC2)CC1 6.48%
CCC(=O)Nc1ccc(S(=O)(=O)NCc2cccn2Cc2cccc(C)c2)cc1 0.842%
COc1ccccc1/C=C(\C#N)c1nc(-c2cc3ccccc3oc2=O)cs1 1.68%
COc1cccc(NC(=O)Cn2c(=O)n(Cc3nc(-c4ccccc4)no3)c(=O)c3ccccc32)c1 -4.4%
COc1ccc(N2CCN(C(=O)C3CCCN(S(=O)(=O)c4ccc5c(c4)oc(=O)n5C)C3)CC2)cc1 (stereo not given) 7.69%
CN(Cc1ccccc1)C(=O)c1ccc(CSc2nc3cccnc3n2Cc2ccccc2)cc1 -5.28%
Cc1cccc(N2CCN(C(=O)Cc3c(C(=O)O)c(C)cn3C)CC2C)c1 (stereo not given) -17%
COc1ccc(NC(=O)Cn2cnc3c(nc4n3CCCCC4)c2=O)cc1Cl -0.11%
CCCS(=O)(=O)Nc1cccc(-c2cn3ccsc3n2)c1 1.79%
COc1ccc(CCNC(=O)c2ccc3nc(CCc4ccccc4)oc3c2)cc1OC 1.45%
CCC(=O)NCCc1sc2nc(-c3ccc(OC)cc3)nn2c1C 8.92%
COc1ccc(C2CC(=O)Nc3c2c(C)nn3-c2nc(C)cc(C)n2)c(OC)c1OC (stereo not given) 1.11%
COC(=O)c1c(NC(=O)COc2ccc(C(C)C)cc2)sc2c1CCCC2 11.5%
CCc1cccc(NC(=O)CCn2nc(C)cc2C)c1 0.532%
COc1ccccc1CCNC(=O)C1(c2cccs2)CCOCC1 -1.09%
COc1ccc(N2CCN(C(=O)c3noc4c3CCCCC4)CC2)cc1 -11.4%
COc1cccc(CNCc2c(C(=O)O)n(Cc3ccc(C)cc3)c3cc(C)ccc23)c1OC 3.52%
O=C(Nc1ccc2oc(-c3ccc(Br)cc3)nc2c1)c1cc2ccccc2o1 2.1%
CC(=O)c1ccc(NC(=O)c2sc(-n3nc(C)c(Cc4ccc5c(c4)OCO5)c3C)nc2C)cc1 -0.587%
Cc1ccc(NC(=O)c2ccc(-c3ccccc3)s2)cc1 -1.32%
CCC1CN(C(=O)N2CCC(C(=O)NCc3cccs3)CC2)c2ccccc2O1 (stereo not given) -3.72%
COc1ccc(CCNC(=O)c2cnc3sc(N4CCCCCC4)nn3c2=O)cc1 2.52%
Cc1nnc(NC(=O)CSc2nc3c([nH]c4ccccc43)c(=O)n2-c2cccc(Cl)c2)s1 -11.8%
COc1ccc(C)cc1NC(=O)NCCn1nnc2cc(S(=O)(=O)N(C)C)ccc21 10.7%
COc1ccc(-c2nc3ccccc3o2)cc1NC(=O)c1cc(Br)ccc1OC -1.57%
O=C(NCCc1nc2ccccc2n1Cc1ccc(Cl)cc1)c1ccccc1 -1.44%
CCOC(=O)c1ccccc1NC(=O)c1sc2nc(-c3ccc(F)cc3)cn2c1C 12%
Cc1cc(C)cc(NCc2nnc3n2CCCCC3)c1 -6.45%
CCCN(C(=O)c1ccc2c(=O)n3c(nc2c1)CCCCC3)c1cccc(Cl)c1 6.53%
Cc1ccc2occ(CC(=O)Nc3c(C)cccc3C)c2c1 9.71%
Cc1c(NS(=O)(=O)c2ccc(C(C)(C)C)cc2)c(=O)n(-c2ccccc2)n1C 3.59%
O=C(CCNS(=O)(=O)c1ccc2c(c1)CCN2C(=O)C1CC1)Nc1ccc(Cl)cc1 -6.09%
Cc1cccc(C)c1NC(=O)CCSCCc1ccccn1 -1.47%
COc1ccc(OCC(=O)N2CCN(C(=O)c3ccc(OC)c(OC)c3)CC2)cc1 -24.3%
COc1ccc(NC(=O)CN2C(=O)COc3ccc(S(=O)(=O)NC4CCCC4)cc32)cc1OC 3.88%
Cc1cc2c(cc1S(=O)(=O)NCc1ccc(F)cc1)OCC(=O)N2 -1.8%
CSc1ccc(CCNC(=O)Cn2ncc3c([nH]c4ccccc43)c2=O)cc1 -2.09%
CCOC(=O)c1cc2c(=O)n3ccccc3nc2n(CCOC)c1=NC(=O)c1c(-c2c(F)cccc2Cl)noc1C 0.94%
O=C(c1ccccc1)n1nc(-c2ccc(Cl)cc2)nc1NCc1ccco1 -8.88%
Cc1ccc(-n2ncc3c(NC4CCCCC4)ncnc32)cc1C 29.1%
CCOc1ccc2c(c1)NC(c1ccc(OCC)c(OCC)c1)=NC(c1ccc(F)cc1)=N2 -13.8%

outcome, inactive:
O=C(CCC1N=C2c3ccccc3N=C(SCc3cccc(Cl)c3)N2C1=O)NCCc1ccccc1 (stereo not given)
Cc1oc(-c2cccc(Br)c2)nc1Cn1c(SCc2cccc(F)c2)nc2cccnc21
CC1=C(C(=O)Nc2ccccc2)C(c2ccc(O)cc2)n2nc(-c3ccc(Cl)cc3)nc2N1 (stereo not given)
CCCN1C(=O)C(Cc2nc3ccccc3c(=O)n2CC)c2cc(Br)ccc21 (stereo not given)
COc1cccc(N2CCN(C(=O)CN3CCSc4ccc(S(=O)(=O)N(C)C)cc43)CC2)c1
CCCCN(Cc1ccccc1)S(=O)(=O)c1ccc2c(c1)CCN2C(=O)C1CCC1
COc1cccc(CNC(=O)Cn2c(=O)n3nc(-c4cccc(C)c4)nc3c3ccccc32)c1
Cc1ccc(NC(=O)[C@H](CSCc2ccccc2)N2Cc3ccccc3C2=O)cc1
COCCCNC(=O)CCCN1C(=O)CCn2nc(-c3cn(C)c4ccccc34)cc21
COc1ccc(-c2ccnc3c2c(=O)n(C)c(=O)n3C)cc1OC
O=C(CCNS(=O)(=O)c1cccc2nsnc12)Nc1ccc(F)cc1
Cc1csc2nc(-c3cccc(NC(=O)c4ccc(S(N)(=O)=O)cc4)c3)cn12
CCOc1ccc(-c2cc(C)n3nc(C(=O)Nc4cc(Cl)ccc4O)cc3n2)cc1
COc1ccc(OC)c(NC(=O)c2nnn(CC(=O)Nc3ccc(C(C)C)cc3)c2N)c1
COc1ccc(NC(=O)Cn2c(=O)oc3cc(S(=O)(=O)N4CCCC4)ccc32)cc1OC
O=c1oc2c(CN3CCOCC3)c(O)ccc2cc1-c1ccccc1
Cc1ccc(N2C(=O)CSC23C(=O)N(CC(=O)NCCc2ccccc2)c2ccccc23)cc1 (stereo not given)
Cc1ccc(C(=O)OCc2cc(=O)n3nc(CC(C)C)sc3n2)cc1
CC(=O)N1CCc2cc(Br)cc(S(=O)(=O)CCC(=O)NCc3ccc(F)cc3)c21
COc1cn(CC(=O)Nc2ccc(C)cc2)c(CN2CCCCC2)cc1=O
Cc1cccc(NC(=O)CN2C(=O)C(c3ccc(F)cc3)=NC23CCCCCC3)c1C
